These results are taken from publication PMC7364478, “FRET-based Tau seeding assay does not represent prion-like templated assembly of Tau filaments” (Molecular Neurodegeneration, 2020).

The data set concerns the molecule itself. The data set is described as follows: light scattering (90° angle, 350 nm) of aggregation; 50 μM Tau protein with 12.5 μM heparin 16,000 in BES buffer pH 7.0 (20 mM BES, 25 mM NaCl), 37 °C, read at time intervals; self-assembly into aggregates or fibers.

B1: Tau^RDΔK (Tau repeat domain, K18 construct, (M)[…] with deletion of K280) (domain or fragment)
chain: not shown
notes: start methionine added before Q244, printed as (M); Tau (MAPT), human, 4-repeat construct K18, […], numbers of hTau40 (2N4R, 441 residues); also called K18 ΔK280; Tau repeat domain with pro-aggregant mutation ΔK280; source: E. coli, purified as described earlier [8]
Consider B1, for which the “overall extent of aggregation (light scattering), fold over Tau^RDΔK-GFP” value was 3 fold.
